This is an account of results in the supplement of paper PMC12217912.

The chains are these.
B1: TEV protease; numbered along this chain (parent)
chain: MGESLFKGPRDYNPISSSICHLTNESDGHTTSLYGIGFGPFIITNKHLFRRNNGTLVVQSLHGVFKVKDTTTLQQHLVDGRDMIIIRMPKDFPPFPQKLKFREPQREERICLVTTNFQTKSMSSMVSDTSCTFPSGDGIFWKHWIQTKDGQCGSPLVSTRDGFIVGIHSASNFTNTNNYFTSVPKNFMELLTNQEAQQWVSGWRLNADSVLWGGHKVFMVKPEEPFQPVKEATQL

This is one part of the list. The full chains were built here from the parent and the listed change. Inactive controls read about 0.05.

The test covers variants of B1. The test can be described thus: raw area under fraction-flipped curve 0-4 h after induction (AUC4h, not background-subtracted), DNA-recorder readout of cleavage of the substrate (dimensionless); higher = more cleavage of the substrate by the protease variant. Particulars: temperature: 34 °C; time window: 0-4 h after rhamnose induction.
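Further: Bxb1 expression induced with 0.2% (w/v) L-rhamnose at OD600 near 0.5, cultures sampled hourly, flipped fraction per protease–substrate barcode pair counted by paired-end Illumina sequencing.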

In the case of MGESLFKGPRDYNPISSSICHLTNESDGHTTSLYGIGFGPFIITNKHLFRRNNGTLVVQSLHGVFKVKDTTTLQQHLVDGRDMIIIRMPKDFPPFPQKLKFREPQREERICLVTTNFQTKSMSSMVSDTSCTFPSGDGIFWKHWIQTKDGQCGSPLVSTRDGFIVGAHSASNFTNTNNYFTSVPKNFMELLTNQEAQQWVSGWRLNADSVLWGGHKVFMVKPEEPFQPVKEATQL [I167A], the “area with substrate ENLYFES” value amounted to 0.0842, the “area with substrate ENLYFFS” value was determined as 0.0623, the “area with substrate ENLYFGS” value was 0.0577 and the “area with substrate ENLYFKS” value came to 0.0703. For the same variant, the “area with substrate ENLYFMS” value worked out at 0.0406, the “area with substrate ENLYFPS” value came to 0.0517, the “area with substrate ENLYFRS” value is 0.071 and the “area with substrate ENLYFTS” value stood at 0.0625. The “area with substrate ENLYFVS” value worked out at 0.0551 and the “area with substrate ENLYFWS” value stood at 0.0494.
Take MGESLFKGPRDYNPISSSICHLTNESDGHTTSLYGIGFGPFAITNKHLFRRNNGTLVVQSLHGVFKVKDTTTLQQHLVDGRDMIIIRMPKDFPPFPQKLKFREPQREERICLVTTNFQTKSMSSMVSDTSCTFPSGDGIFWKHWIQTKDGQCGSPLVSTRDGFIVGIHSASNFTNTNNYFTSVPKNFMELLTNQEAQQWVSGWRLNADSVLWGGHKVFMVKPEEPFQPVKEATQL [I42A]: the “area with substrate ENLYFES” value was found to be 0.0555, the “area with substrate ENLYFFS” value worked out at 0.0804, the “area with substrate ENLYFGS” value is 0 and the “area with substrate ENLYFHS” value was 0.0578. Further, the “area with substrate ENLYFIS” value came to 0.0528, the “area with substrate ENLYFKS” value turned out to be 0.0277, the “area with substrate ENLYFMS” value was 0.0633 and the “area with substrate ENLYFNS” value was determined as 0.0499. Also, the “area with substrate ENLYFPS” value was found to be 0.0421, the “area with substrate ENLYFRS” value worked out at 0.0526, the “area with substrate ENLYFSS” value amounted to 0.0409 and the “area with substrate ENLYFYS” value was 0.0444.
As to MGESLFKGPRDYNPISSSICHLTNESDGHTTSLYGIGFGPFIITNKHLFRRNNGTLVVQSLHGVFKVKDTTTLQQHLVDGRDMIIIRMPKDFPPFPQKLKFREPQREERICLVTTNFQTKSMSSMVSDTSCTFPSGDGIFWKHWIQTKDGQCGSPLVSTRDGFIVGIHSASNFTNTNNYFTSVPKNFMELLTNQEAQQWVSGWRLNADSVQWGGHKVFMVKPEEPFQPVKEATQL [L211Q], the “area with substrate ENLYFES” value turned out to be 0.073, the “area with substrate ENLYFFS” value stood at 0.0734, the “area with substrate ENLYFGS” value was 0.0519 and the “area with substrate ENLYFHS” value stood at 0.068. The “area with substrate ENLYFIS” value turned out to be 0.0593, the “area with substrate ENLYFKS” value came to 0.0542, the “area with substrate ENLYFMS” value was 0.0766 and the “area with substrate ENLYFNS” value worked out at 0.0638. Also, the “area with substrate ENLYFPS” value worked out at 0.0693, the “area with substrate ENLYFRS” value came out at 0.0655, the “area with substrate ENLYFSS” value is 0.0518 and the “area with substrate ENLYFVS” value stood at 0.0563. The “area with substrate ENLYFWS” value worked out at 0.0651.
With MGESLFKGPRDYNPISSSICHLNNESDGHTTSLYGIGFGPFIITNKHLFRRNNGTLVVQSLHGVFKVKDTTTLQQHLVDGRDMIIIRMPKDFPPFPQKLKFREPQREERICLVTTNFQTKSMSSMVSDTSCTFPSGDGIFWKHWIQTKDGQCGSPLVSTRDGFIVGIHSASNFTNTNNYFTSVPKNFMELLTNQEAQQWVSGWRLNADSVLWGGHKVFMVKPEEPFQPVKEATQL [T23N], the “area with substrate ENLYFES” value worked out at 0.0561, the “area with substrate ENLYFHS” value amounted to 0.0454, the “area with substrate ENLYFIS” value stood at 0.0585 and the “area with substrate ENLYFKS” value was 0.0565. Moreover, the “area with substrate ENLYFMS” value was determined as 0.073, the “area with substrate ENLYFNS” value came to 0.0537, the “area with substrate ENLYFPS” value was 0.0517 and the “area with substrate ENLYFRS” value is 0.0628. Also, the “area with substrate ENLYFVS” value stood at 0.0486, the “area with substrate ENLYFWS” value came out at 0.0555 and the “area with substrate ENLYFYS” value worked out at 0.0582.
On to MGESLFKGPRDYNPISSSICHLTNESDGHTTSLYGIGFGPFIITNKHLFRRNNGTLVVQSLHGVFKVKDTTTLQQHLVDGRDMIIIRMPKDFPPFPQKLKFREPQREERICLVTTNFQTKSMSSMVSDTSCTFPSGDGIFWKHWIQTKDGQCGSPLVSTRDGFIVGIHSASNFTNTNNYFTSVPKNFMELLTNQEAQQWVSQWRLNADSVLWGGHKVFMVKPEEPFQPVKEATQL [G202Q], for which the “area with substrate ENLYFES” value was found to be 0.0521, the “area with substrate ENLYFFS” value was 0.0687, the “area with substrate ENLYFGS” value is 0.0584 and the “area with substrate ENLYFHS” value is 0.0566. The “area with substrate ENLYFIS” value was 0.057, the “area with substrate ENLYFKS” value was found to be 0.0747, the “area with substrate ENLYFLS” value came out at 0.0617 and the “area with substrate ENLYFMS” value was found to be 0.0568. The “area with substrate ENLYFNS” value came to 0.0594, the “area with substrate ENLYFPS” value amounted to 0.0701, the “area with substrate ENLYFRS” value was found to be 0.0469 and the “area with substrate ENLYFSS” value worked out at 0.0661. The “area with substrate ENLYFTS” value amounted to 0.0408.
Regarding MGESLFKGPRDYNPISSSICHLTNESDGHTTSLYGIGFGPFIITNKHLFRRNNGTLVVQSLHGVFKVKDTTTLQQHLVDGRDMIIIRMPKDFPPFPQKLKFREPQREERGCLVTTNFQTKSMSSMVSDTSCTFPSGDGIFWKHWIQTKDGQCGSPLVSTRDGFIVGIHSASNFTNTNNYFTSVPKNFMELLTNQEAQQWVSGWRLNADSVLWGGHKVFMVKPEEPFQPVKEATQL [I110G], the “area with substrate ENLYFES” value was 0.06, the “area with substrate ENLYFFS” value was 0.0746, the “area with substrate ENLYFIS” value was 0.0412 and the “area with substrate ENLYFMS” value worked out at 0.0507. Further, the “area with substrate ENLYFNS” value came out at 0.0519, the “area with substrate ENLYFPS” value was determined as 0.0565, the “area with substrate ENLYFRS” value amounted to 0.0909 and the “area with substrate ENLYFVS” value amounted to 0.0481. The “area with substrate ENLYFWS” value came to 0.0578.
MGESLFKGPRDYNPISSSICHLTNESDGHTTSLYGIGFGPFIITNKHLFRRNNGTLVVQSLHGVFKVKDTTTLQQHLVDGRDMIIIRMPKDFPPFPQKLKFREPQREERICLVTTSFQTKSMSSMVSDTSCTFPSGDGIFWKHWIQTKDGQCGSPLVSTRDGFIVGIHSASNFTNTNNYFTSVPKNFMELLTNQEAQQWVSGWRLNADSVLWGGHKVFMVKPEEPFQPVKEATQL [N116S]: the “area with substrate ENLYFES” value came out at 0.0758, the “area with substrate ENLYFGS” value is 0.0341, the “area with substrate ENLYFHS” value amounted to 0.0535 and the “area with substrate ENLYFIS” value was determined as 0.0565. Further, the “area with substrate ENLYFKS” value was determined as 0.0644, the “area with substrate ENLYFMS” value came to 0.0614, the “area with substrate ENLYFPS” value turned out to be 0.0325 and the “area with substrate ENLYFRS” value amounted to 0.0793. Moreover, the “area with substrate ENLYFVS” value was 0.0574.
For the variant MGESLFKGPRDYNPISSSICHLTNEWDGHTTSLYGIGFGPFIITNKHLFRRNNGTLVVQSLHGVFKVKDTTTLQQHLVDGRDMIIIRMPKDFPPFPQKLKFREPQREERICLVTTNFQTKSMSSMVSDTSCTFPSGDGIFWKHWIQTKDGQCGSPLVSTRDGFIVGIHSASNFTNTNNYFTSVPKNFMELLTNQEAQQWVSGWRLNADSVLWGGHKVFMVKPEEPFQPVKEATQL [S26W], the “area with substrate ENLYFES” value is 0.0372, the “area with substrate ENLYFHS” value stood at 0.0723, the “area with substrate ENLYFIS” value is 0.0578 and the “area with substrate ENLYFKS” value was 0.0568. In addition, the “area with substrate ENLYFLS” value was 0.0672, the “area with substrate ENLYFMS” value came to 0.0596, the “area with substrate ENLYFNS” value is 0.0524 and the “area with substrate ENLYFPS” value stood at 0.0667. Besides, the “area with substrate ENLYFRS” value came to 0.0579, the “area with substrate ENLYFSS” value amounted to 0.0577, the “area with substrate ENLYFTS” value came out at 0.0627 and the “area with substrate ENLYFVS” value was found to be 0.0611. In addition, the “area with substrate ENLYFWS” value was 0.0526 and the “area with substrate ENLYFYS” value stood at 0.0541.
Turning to MGESLFKGPRDYNPISSSICHLTNESDGHTTSLYGIGFGPFIITNKHLFRRNNGTLVVQSLHGVFKVKDTTTLQQHYVDGRDMIIIRMPKDFPPFPQKLKFREPQREERICLVTTNFQTKSMSSMVSDTSCTFPSGDGIFWKHWIQTKDGQCGSPLVSTRDGFIVGIHSASNFTNTNNYFTSVPKNFMELLTNQEAQQWVSGWRLNADSVLWGGHKVFMVKPEEPFQPVKEATQL [L77Y], the “area with substrate ENLYFES” value amounted to 0.0578, the “area with substrate ENLYFGS” value amounted to 0.0502, the “area with substrate ENLYFHS” value stood at 0.0613 and the “area with substrate ENLYFIS” value was 0.0678. Besides, the “area with substrate ENLYFKS” value stood at 0.0572, the “area with substrate ENLYFMS” value came to 0.0489, the “area with substrate ENLYFPS” value amounted to 0.0469 and the “area with substrate ENLYFRS” value worked out at 0.0606. The “area with substrate ENLYFSS” value was 0.0615, the “area with substrate ENLYFVS” value is 0.0512 and the “area with substrate ENLYFYS” value came to 0.0408.
